Measurements as given in PMC4336329 (PLoS ONE, 2015).
The whole screen tested about 310,000 compounds, of which about 2,200 (0.71%) showed an effect of 50% or more. The effect is printed as a negative number. Some of the results follow.

These compounds were tested against human ether-à-go-go-related gene (hERG) potassium channel (human, UniProt Q12809) (assay: primary screen, population patch clamp on CHO cells stably expressing hERG).
Sequence of human ether-à-go-go-related gene (hERG) potassium channel (Q12809 whole entry, looked up): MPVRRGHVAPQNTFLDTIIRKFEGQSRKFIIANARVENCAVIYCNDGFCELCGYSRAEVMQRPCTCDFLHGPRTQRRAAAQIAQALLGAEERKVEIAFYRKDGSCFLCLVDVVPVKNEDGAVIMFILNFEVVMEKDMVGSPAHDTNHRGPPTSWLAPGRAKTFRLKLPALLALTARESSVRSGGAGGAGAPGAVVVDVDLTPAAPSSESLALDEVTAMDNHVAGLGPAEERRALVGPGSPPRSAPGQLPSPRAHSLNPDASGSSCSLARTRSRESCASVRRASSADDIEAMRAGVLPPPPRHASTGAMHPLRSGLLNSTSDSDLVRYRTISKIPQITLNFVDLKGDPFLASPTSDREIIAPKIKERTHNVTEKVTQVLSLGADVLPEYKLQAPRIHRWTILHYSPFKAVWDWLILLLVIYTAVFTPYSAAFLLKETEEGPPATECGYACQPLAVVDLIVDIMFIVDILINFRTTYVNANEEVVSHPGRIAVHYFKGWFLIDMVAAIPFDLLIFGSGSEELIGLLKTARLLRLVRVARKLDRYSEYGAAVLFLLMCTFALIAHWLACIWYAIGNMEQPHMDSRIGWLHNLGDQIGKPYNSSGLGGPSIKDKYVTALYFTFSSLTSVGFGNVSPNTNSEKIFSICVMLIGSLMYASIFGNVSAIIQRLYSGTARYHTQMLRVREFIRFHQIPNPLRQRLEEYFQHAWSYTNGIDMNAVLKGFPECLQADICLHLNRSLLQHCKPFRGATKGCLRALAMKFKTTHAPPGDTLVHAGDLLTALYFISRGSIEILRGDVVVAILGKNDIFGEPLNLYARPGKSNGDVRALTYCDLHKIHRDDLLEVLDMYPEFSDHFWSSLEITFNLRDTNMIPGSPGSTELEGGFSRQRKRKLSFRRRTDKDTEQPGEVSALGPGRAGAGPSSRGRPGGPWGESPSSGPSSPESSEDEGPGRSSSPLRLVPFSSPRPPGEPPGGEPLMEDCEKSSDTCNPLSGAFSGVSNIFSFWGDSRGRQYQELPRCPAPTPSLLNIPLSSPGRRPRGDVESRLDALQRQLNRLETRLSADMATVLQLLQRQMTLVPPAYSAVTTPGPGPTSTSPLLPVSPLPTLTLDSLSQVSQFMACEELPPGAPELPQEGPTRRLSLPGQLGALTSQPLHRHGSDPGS

SMILES	hERG current change (%, negative = inhibition) at 1uM [%]
COCCNC(=O)c1cc2sccc2n1C	5.7
O=C1c2ccccc2-c2onc3ccc(Oc4ccccc4)c1c23	-7.62
CCSc1nnc(NC(=O)c2cccnc2)s1	5.98
S=C1NCN(C2CCCCC2)CN1c1ccccc1	14
Cn1c(=O)c2c(nc(Cl)n2CCOc2ccccc2)n(C)c1=O	14.8
CCCCCn1c(C(Cc2ccccc2)NC(=O)COC)nc2ccccc21 (centres unmarked)	-8.53
CCOC(=O)c1cc(CC)sc1NC(=O)c1ccc2c(c1)OCCO2	5.44
C/C=C/c1ccc(OCC(=O)Nc2ccncc2)c(OC)c1	-6.15
O=C(NCc1ccco1)C1CCC(CNS(=O)(=O)c2cccc3cccnc23)CC1 (centres unmarked)	15.6
O=[N+]([O-])c1ccc(Oc2cccc(C(F)(F)F)c2)nc1	5.98
CCOC(=O)C1CCCCN1Cc1cn[nH]c1-c1ccc(F)cc1F (centres unmarked)	6.54
COCCNc1nc(SCc2ccccc2)nc2sc3c(c12)CCC3	11.6
O=C(c1ccccc1)c1ccc(OCCn2cnc3ccccc3c2=O)cc1	11
COc1ccc(C(C)=O)cc1Cn1nnc(-c2ccccc2Br)n1	0.0382
C=CCOn1c(=O)c(-c2ccc(OC)c(OC)c2)[n+]([O-])c2ccccc21	-13.3
CCn1c(SCc2ccccc2)nc2c1c(=O)[nH]c(=O)n2C	12.2
COc1ccc(-c2nonc2NC(=O)c2ccco2)cc1OC	17.3
COc1cc2cc(C(=O)N3CCOCC3)cc(-c3ccc(C)cc3)c2cc1OC	9.39
CCCCn1c(N)c(N(CCOC)C(=O)c2cccc(S(=O)(=O)N(C)c3ccccc3)c2)c(=O)[nH]c1=O	13.8
COc1cccc(/C=N/n2c(-c3ccco3)nc3ccccc3c2=O)c1OC	0.657
CCc1ccc(C2c3[nH]c4ccccc4c3CCN2C(=O)c2cc(C)nn2C)cc1 (centres unmarked)	18.4
Cc1ccccc1OCCSc1nnc(-c2ccncc2)n1C	-6.23

SMILES	hERG current change (%, negative = inhibition) at 1uM [%]
O=C(N/N=C/C(Br)=C/c1ccccc1)c1ccccc1F	3.95
COc1cc(C2C(C#N)=C(N)Oc3n[nH]c(-c4ccncc4)c32)cc(OC)c1OC (centres unmarked)	2.96
[N-]=[N+]=CC(=O)CCCN1C(=O)c2ccccc2C1=O	10.3
CC(Oc1ccc(F)cc1)C(=O)Nc1nc(-c2ccccn2)cs1 (centres unmarked)	-26
COCC(=O)Nc1cc(C)c2c(=O)oc3ccccc3c2n1	3.9
Cc1ccc(/C=C(\NC(=O)c2ccccc2)C(=O)OCc2ccccc2)cc1	14.8
O=C(C1CCN(CCCc2ccccc2)CC1)N(CCc1ccccc1)Cc1ccccc1.O=C(O)C(=O)O	-75
COc1ccc(CNC(=O)C(C)N(C)Cc2cccc(F)c2)cc1 (centres unmarked)	-4.06
O=C(Cc1ccccc1)Nc1ccccc1C(=O)N1CCCCC1	12.6
CCc1ccc(CCC(=O)Nc2ccc(Br)cc2)o1	14.2
COc1cc(/C=C/C(=O)O)cc(S(=O)(=O)Nc2ccc3nc(C)sc3c2)c1OC	23.4
O=C(N/N=C/C=C/c1ccccc1)c1cnccn1	7.66
COc1ccc2c(Cl)c(-c3nnc(SCC(=O)c4ccccc4)n3C)sc2c1	17.4
CC(C)(C)OC(=O)NCCC(=O)N/N=C/c1ccc2nccnc2c1	13.2
COc1cccc(-n2c(=O)c3ccccc3n(CC(=O)NCC3CCCO3)c2=O)c1 (centres unmarked)	12.6
Cc1nn(C)c(Cl)c1CN1CCCC(CO)(Cc2cccc(Cl)c2)C1 (centres unmarked)	-22.8
O=S(=O)(Nc1ccccc1)c1ccc(NS(=O)(=O)c2cccs2)cc1	-5.56
CCCc1ccc(OCc2ccc(C(=O)O)o2)c(OC)c1	12.9
Cc1ccc(C(=O)NNC(=S)NCC2CCCO2)cc1[N+](=O)[O-] (centres unmarked)	-27.1
COc1ccc2cc(C(=O)C3CCCN(C(=O)c4cccnc4)C3)ccc2c1 (centres unmarked)	8.92
COc1ccc(NC(=O)CCc2nnc3ccc(NCc4ccc5c(c4)OCO5)nn23)cc1	12
O=C(COC(=O)CC1c2ccccc2CCN1S(=O)(=O)c1ccc(F)cc1)Nc1ccccc1 (centres unmarked)	-0.444

SMILES	hERG current change (%, negative = inhibition) at 1uM [%]
CSCCC1NC(=O)N(CC(=O)Nc2ccc(N3CCCCC3)cc2)C1=O (centres unmarked)	0.969
CCOc1cccc(CNCCO)c1OCc1ccc(Cl)cc1.Cl	-6.78
Cn1c(=O)c2c(-c3ccccc3)n(CCCN3CCOCC3)cc2n(C)c1=O	9.17
Cc1ccc(NC(=O)CS(=O)CC(=O)N(C2CCCC2)C(C)C(=O)NC2CCCCC2)cc1 (centres unmarked)	4.21
Cc1ccccc1S(=O)(=O)Cc1ccc(C(=O)N2CCN(c3ccc(F)cc3)CC2)o1	-2.64
COC(/C=C/Nc1ccc(Cl)cc1)=C(C#N)C#N	-29.2
CCn1cc(S(=O)(=O)c2ccc(C)cc2)c(=O)c2cc(OC)ccc21	11.1
CN1c2ccc(Cl)cc2C(=O)NC1C1CC=CCC1 (centres unmarked)	12.5
CCOc1ccc(CNC(=O)CCCC(=O)n2nc(C)c3ccccc32)cc1	10.6
Cc1nnc(N2C(=O)C(O)=C(C(=O)c3ccco3)C2c2ccc(C(C)C)cc2)s1 (centres unmarked)	15.8
CN(C)S(=O)(=O)c1ccc(C(=O)OCC(=O)NC(=O)NCc2ccccc2)cc1	1.71
COc1cc(CCC(=O)Nc2nnc(C)s2)cc(OC)c1OC	15
CC1CCCC(C)N1CCNC(=O)C1CCN(S(=O)(=O)N2CCCCC2)CC1 (centres unmarked)	-1.87
O=C(NCC1CCCN(C(=O)c2cscn2)C1)c1ccc(-c2ccccc2)cc1 (centres unmarked)	5.36
Cn1c(C(=O)O)cnc1Sc1ncc(C(F)(F)F)cc1Cl	15.1
C[C@@H]1O[C@@H](O[C@@H]2C(=O)c3c(O)cc(O)cc3O[C@H]2c2ccc(O)c(O)c2)[C@H](O)[C@H](O)[C@H]1O	10.6
Cc1ccccc1OCCC(=O)OCC(=O)N1c2ccccc2NC(=O)C1(C)C	2.09
CC(C)C(C(=O)O)N1C(=O)/C(=C/c2cccn2C)SC1=S (centres unmarked)	6.06
O=C(Nc1cc(NC(=O)c2ccccc2F)ccc1Cl)c1ccccc1	14.3
COc1ccc(C(=O)C23CC4CC(C2)CC(C(=O)c2ccc(OC)cc2)(C4)C3)cc1	11.1
CC(=O)Nc1ccc(-c2csc(NC(=O)C3CCN(S(=O)(=O)c4cccs4)CC3)n2)cc1	7.56
CCn1c(SCC(=O)Nc2ccc3c(c2)OCCO3)nc2c(c1=O)SC(C)C2 (centres unmarked)	14.9

SMILES	hERG current change (%, negative = inhibition) at 1uM [%]
CC(=O)Nn1c(-c2ccccc2)cc2ccccc21	9.84
Cn1c(=O)oc2cc(S(=O)(=O)N3CCC4(CC3)OCCO4)ccc21	5.06
CCc1nc2nc(C)c(NS(=O)(=O)c3ccc(F)cc3)c(=O)n2[nH]1	12.5
Cc1cccc(CN2CCCC(C(=O)N3CCc4ccccc4C3)C2)c1.O=C(O)C(=O)O (centres unmarked)	-18.6
CSC(=S)NCc1cccnc1	13.4
CC(=O)Nc1ccc2nc(-c3ccncc3)[nH]c2c1	14.3
O=C(NCc1ccccn1)c1ccc(/C=N/O)nc1	10.1
COc1cccc(NC(=O)C2CCC(CNS(=O)(=O)c3cccc4cccnc34)CC2)c1 (centres unmarked)	14.4
CCOc1cccc(=O)c2c(C)n(Cc3ccco3)c(C)c12	-6.11
COC(=O)c1cc(S(=O)(=O)Nc2cccc(-c3cnco3)c2)oc1C	7.27
CN1CCN(c2ccccc2NC(=O)COc2ccc(C3CCCCC3)cc2)CC1	14.2
COC(=O)C1=C(c2ccc(OC)c(OC)c2)C[C@@H]2CC[C@H]1N2C(=O)N1CCc2cc(OC)c(OC)cc2C1	9.58
Cc1sc2ncnc(N3CCC(C(=O)NNC(=O)COc4ccc(Br)cc4)CC3)c2c1C	-28.4
CC(=O)Nc1ccc(S(=O)(=O)NNC(=O)c2cc3c4ccccc4n(C)c3s2)cc1	8.59
Cc1ccc(-n2c([S-])c(C(=O)Nc3ccc(OC(F)F)cc3)[n+]3ccc(C(=O)NCCO)cc23)cc1C	14.3
CCN(CC)CCn1c(SCC(=O)NCCC2=CCCCC2)nc2c(sc3ccccc32)c1=O	15.4
CCOc1ccc(CN2CCN(Cc3cccc4nonc34)CC2CCO)cc1 (centres unmarked)	-84.6
O=C(Cc1cccc(F)c1F)NC1CCCN(Cc2ccc(Cl)cc2)C1 (centres unmarked)	5.47
COc1ccc(NS(=O)(=O)c2ccc3c(c2)N(C(C)=O)CCO3)c(OC)c1	7.56
O=C(NCc1ccncc1)c1cc(S(=O)(=O)N2CCOCC2)c(Cl)cc1Cl	12.6
